# “And” between values parts separate entries of the source, which are not always exact repeats. Equal values may be shown once. The shares of active, inactive and inconclusive entries below differ from those in the screen. Potencies of inconclusive entries are doubtful fits and often do not repeat. A structure can be active in one record and inactive in another. The source made the active and inactive calls. Unless noted, calls follow the shape of the full dose curve.
# Legend:
# [1] = molecular target: Thyrotropin receptor (Homo sapiens) (UniProt P16473); test: qHTS assay to identify small molecule antagonists of the thyroid stimulating hormone receptor (TSHR) signaling pathway (AID 1259385); details: TSHR-HEK293 cAMP HTRF, TSH-stimulated antagonist mode; activity change, negative = inhibition: at 92.4 µM (top of the series) unless noted; also: nearly all actives have a fitted effect of over 20% in size; as to activity change, negative = inhibition: % is scaled to controls: 0 for no effect and ±100 for the full control effect
# Procedure, shortened: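 TSHR-HEK293 cells (800/well) plated 18 h, then compounds with Ro20-1724 and TSH at 1.5 ng/mL final, 30 min at room temperature. cAMP quantified by HTRF (cAMP-d2/anti-cAMP-cryptate, 1 h); 15 concentrations in triplicate.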
# [2] = molecular target: Progesterone receptor (Homo sapiens) (UniProt P06401); test: qHTS assay to identify small molecule antagonists of the progesterone receptor (PR) signaling pathway (AID 1346795; active = well fitted inhibition curve with a large enough effect in the signal ratio in the repeat runs, not every such curve was filed as active; inconclusive = weak or mixed curves; the % refers to the signal ratio; as to activity change, negative = inhibition: % is scaled to controls: 0 for no effect and ±100 for the full control effect); details: PR-UAS-bla HEK293T, beta-lactamase FRET ratio, 16 h; activity change, negative = inhibition: at 92.4 µM (top of the series) unless noted
# Procedure, shortened: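 Stimulus R5020 at 1 nM final; cells HEK293T PR-UAS-bla; medium with 2% charcoal-stripped FBS; compound exposure 16 hr at 37C, 5% CO2; detection by FRET beta-lactamase substrate, 2 hr, room temperature.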
# [3] = qHTS assay to identify small molecule agonists of the progesterone receptor (PR) signaling pathway - cell viability counter screen (AID 1346799); also: nearly all actives have a fitted effect of over 45% in size
# Procedure, shortened: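 Multiplexed viability read: CellTiter-Glo luminescence, 30 min RT, following LiveBLAzer FRET measurement on PR-UAS-bla HEK293T cells exposed to compounds 16 hr.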
# [4] = qHTS assay to identify small molecule antagonists of the TGF-beta/Smad signaling pathway - cell viability counter screen (AID 1346824; active = well fitted curve in the direction sought with a large enough effect in the repeat runs; inconclusive = weak or mixed curves; inactive = no such curve, though single readings can be large; an effect the other way counts as inactive or inconclusive; also: nearly all actives have a fitted effect of over 50% in size)
# Procedure, shortened: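 SBE-bla HEK 293T cells, incubated overnight, then compound plus 0.25 ng/mL TGF-beta1 (stock added) for 5 hr at 37 C. Viability was read in the same wells by CellTiter-Glo luminescence after 30 min at room temperature.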
# [5] = qHTS assay to identify small molecule agonists of the TGF-beta/Smad signaling pathway (AID 1346859; active = well fitted activation curve with a large enough effect in the signal ratio in the repeat runs, not every such curve was filed as active; inconclusive = weak or mixed curves; the % refers to the signal ratio); details: SBE-bla HEK293T, TGF-beta/Smad beta-lactamase reporter, 5 h; activation: at 76.8 µM (top of the series) unless noted
# Procedure, shortened: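 Screening used HEK 293T SBE-bla cells at 4,000/well. Test agents: 5 hr, 37 C. Detection: FRET substrate, 2 hr RT, then excitation 405 nm with emissions at 460 and 530 nm.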
# [6] = qHTS assay to identify small molecule antagonists of the progesterone receptor (PR) signaling pathway - cell viability counter screen (AID 1346798; active = well fitted curve in the direction sought with a large enough effect in the repeat runs; inconclusive = weak or mixed curves; inactive = no such curve, though single readings can be large; an effect the other way counts as inactive or inconclusive; also: nearly all actives have a fitted effect of over 50% in size)
# Procedure, shortened: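 In the same plates used for the beta-lactamase readout, cell viability of compound- and R5020-treated PR-UAS-bla HEK293T cells (16 hr, 37C) was assessed by CellTiter-Glo luminescence.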
# [7] = qHTS assay to identify small molecule agonists of the TGF-beta/Smad signaling pathway - cell viability counter screen (AID 1346829; active = well fitted curve in the direction sought with a large enough effect in the repeat runs; inconclusive = weak or mixed curves; inactive = no such curve, though single readings can be large; an effect the other way counts as inactive or inconclusive; also: nearly all actives have a fitted effect of over 45% in size)
# Procedure, shortened: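 In parallel with the Smad reporter read, viability of HEK 293T cells stably carrying SBE-bla is quantified by ATP luminescence following 5 hr compound treatment.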
# Potency is read from the fitted curve at half-maximal effect; tags tell the direction and shape of the fitted curve or compound fluorescence and quenching.
# Sequence of UniProt P16473 (P16473 whole entry, looked up): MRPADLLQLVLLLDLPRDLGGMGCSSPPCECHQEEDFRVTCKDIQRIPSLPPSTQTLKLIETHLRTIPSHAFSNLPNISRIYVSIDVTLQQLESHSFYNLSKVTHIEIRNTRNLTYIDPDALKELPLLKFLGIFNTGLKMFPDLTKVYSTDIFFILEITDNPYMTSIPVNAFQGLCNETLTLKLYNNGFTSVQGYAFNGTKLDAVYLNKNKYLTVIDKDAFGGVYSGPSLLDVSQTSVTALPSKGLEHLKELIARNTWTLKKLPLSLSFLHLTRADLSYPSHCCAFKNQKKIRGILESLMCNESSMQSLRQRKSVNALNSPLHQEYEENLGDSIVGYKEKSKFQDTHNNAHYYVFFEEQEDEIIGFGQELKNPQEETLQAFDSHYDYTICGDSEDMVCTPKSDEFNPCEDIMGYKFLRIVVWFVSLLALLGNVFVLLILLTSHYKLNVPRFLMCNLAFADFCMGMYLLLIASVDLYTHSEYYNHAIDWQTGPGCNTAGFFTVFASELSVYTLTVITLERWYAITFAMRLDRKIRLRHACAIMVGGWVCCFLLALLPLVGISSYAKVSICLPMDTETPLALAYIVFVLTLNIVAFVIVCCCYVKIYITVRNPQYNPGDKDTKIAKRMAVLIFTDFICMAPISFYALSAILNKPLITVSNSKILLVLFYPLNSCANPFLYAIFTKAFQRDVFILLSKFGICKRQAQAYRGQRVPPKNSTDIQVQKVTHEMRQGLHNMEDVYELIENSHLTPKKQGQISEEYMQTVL
# Sequence of UniProt P06401 (P06401 whole entry, looked up): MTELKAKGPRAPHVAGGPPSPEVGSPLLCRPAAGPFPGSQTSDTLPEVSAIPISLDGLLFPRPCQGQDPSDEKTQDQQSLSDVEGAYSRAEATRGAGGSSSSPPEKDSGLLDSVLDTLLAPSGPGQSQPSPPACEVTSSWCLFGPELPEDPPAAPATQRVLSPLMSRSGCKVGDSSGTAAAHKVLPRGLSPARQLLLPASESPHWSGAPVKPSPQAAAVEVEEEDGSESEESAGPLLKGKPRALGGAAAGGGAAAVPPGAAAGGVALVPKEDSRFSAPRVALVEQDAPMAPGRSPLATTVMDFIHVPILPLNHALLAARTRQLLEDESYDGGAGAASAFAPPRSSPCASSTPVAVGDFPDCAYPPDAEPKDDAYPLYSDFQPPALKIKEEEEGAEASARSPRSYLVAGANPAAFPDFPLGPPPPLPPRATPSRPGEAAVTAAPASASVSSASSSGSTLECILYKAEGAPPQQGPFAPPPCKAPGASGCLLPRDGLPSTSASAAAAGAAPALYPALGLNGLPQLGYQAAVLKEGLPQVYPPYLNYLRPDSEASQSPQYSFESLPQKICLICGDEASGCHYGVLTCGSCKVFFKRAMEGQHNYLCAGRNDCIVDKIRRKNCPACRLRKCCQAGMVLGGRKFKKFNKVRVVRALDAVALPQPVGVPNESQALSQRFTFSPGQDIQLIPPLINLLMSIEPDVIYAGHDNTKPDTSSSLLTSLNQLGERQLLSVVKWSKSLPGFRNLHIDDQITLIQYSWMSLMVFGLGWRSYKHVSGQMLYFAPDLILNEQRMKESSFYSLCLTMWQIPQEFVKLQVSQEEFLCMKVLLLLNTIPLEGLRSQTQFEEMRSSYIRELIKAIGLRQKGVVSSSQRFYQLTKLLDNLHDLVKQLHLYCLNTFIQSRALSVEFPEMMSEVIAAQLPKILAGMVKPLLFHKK
smiles,measurement,setting,value
CCC(C)CO (stereo not given),Potency,[1],"inconclusive: 0.191 µM [falling, full curve, poor fit]"
same,Potency,[2],inactive
O=C(O)Cc1cccc2ccccc12,Potency,[1],"inconclusive: 77 µM [falling, single point]"
same,Potency,[2],inconclusive: 30.6 µM [partial curve]
same,Potency,[3],"inactive and active: 21.7 µM and inconclusive: 18.8 µM [cytotoxic, full curve]"
same,Potency,[4],"inconclusive: 0.195 µM [cytotoxic, single point]"
same,Potency,[5],"inconclusive: 21.9 µM [activator, single point]"
CCCCCCCCCCCO,Potency,[1],inactive
same,Potency,[6],inactive
CC1(C)CCC(C)(C)c2cc(C(=O)Nc3ccc(C(=O)O)cc3)ccc21,Potency,[1],"inconclusive: 77 µM [falling, single point]"
same,Potency,[2],"inconclusive: 15.4 µM [rising, partial curve]"
same,Potency,[6],"inconclusive: 17.2 µM [rising, partial curve]"
same,Potency,[3],"inconclusive: 21.7 µM [rising, partial curve, poor fit]"
same,Potency,[5],"inconclusive: 27.5 µM [rising, partial curve]"
CC(C)CCOC(=O)/C=C/c1ccccc1,Potency,[1],"inconclusive: 68.9 µM [falling, partial curve]"
same,Potency,[6],inactive
COc1ccc(C(=O)/C(Br)=C\C(=O)O)cc1,Potency,[1],"inconclusive: 13.7 µM [rising, partial curve, poor fit]"
same,Potency,[2],inconclusive: 68.6 µM [single point]
same,Potency,[3],"inconclusive: 61.1 µM [rising, partial curve]"
same,Potency,[7],inactive
CN(Cc1cc(Br)cc(Br)c1N)C1CCCCC1,Potency,[1],active: 29.8 µM
same,Potency,[2],inconclusive: 8.41 µM [full curve]
same,Potency,[3],"inconclusive: 37.6 µM [cytotoxic, single point]"
CN1Cc2c(N)cccc2C(c2ccccc2)C1 (stereo not given),Potency,[1],inactive
same,"activity change, negative = inhibition",[2],inconclusive: -27.9%
same,Potency,[6],"inconclusive: 29.8 µM [cytotoxic, partial curve, poor fit]"
same,Potency,[3],"inconclusive: 38.6 µM [cytotoxic, partial curve] and inconclusive: 29.8 µM [cytotoxic, single point]"
O=C(NO)C1(NS(=O)(=O)c2ccc(Oc3ccc(F)cc3)cc2)CCOCC1,Potency,[1],inactive
same,Potency,[6],"inconclusive: 24.3 µM [rising, full curve]"
same,Potency,[3],"inconclusive: 5.45 µM [rising, full curve, poor fit]"
COc1cc(C(=O)NC2CCN(C)CC2)ccc1Nc1ncc2c(n1)N(C1CCCC1)CC(F)(F)C(=O)N2C,Potency,[1],active: 11.2 µM
same,Potency,[2],"inconclusive: 28.1 µM [falling, partial curve]"
same,Potency,[6],"inconclusive: 44.5 µM [cytotoxic, partial curve, poor fit]"
same,Potency,[3],"inconclusive: 2.23 µM [rising, partial curve, poor fit]"
same,Potency,[4],"inconclusive: 50.4 µM [cytotoxic, partial curve, poor fit]"
same,Potency,[7],"inconclusive: 56.5 µM [cytotoxic, single point]"
same,Potency,[5],"inconclusive: 50.4 µM [rising, partial curve, poor fit]"
CCO[Si](C)(CCCOCC1CO1)OCC (stereo not given),Potency,[1],inactive
same,Potency,[6],inactive
CNCCCN1c2ccccc2CCc2ccccc21,Potency,[1],active: 29.8 µM
same,Potency,[2],"inconclusive: 21.1 µM [falling, partial curve]"
same,Potency,[6],active: 18.8 µM
same,Potency,[3],active: 21.1 µM
same,Potency,[4],inactive
CCC1OCC(COc2ccc(Oc3ccccc3)cc2)O1 (stereo not given),Potency,[1],inconclusive: 61.1 µM
same,Potency,[2],active: 54.5 µM
same,Potency,[6],"inconclusive: 77 µM [cytotoxic, single point]"
same,Potency,[3],"inconclusive: 24.3 µM [rising, partial curve]"
CC(C)Nc1ccc(NC(C)C)c2c1C(=O)c1ccccc1C2=O,Potency,[1],"inconclusive: 25.3 µM [falling, partial curve]"
same,Potency,[2],"inconclusive: 31.9 µM [falling, partial curve, poor fit]"
same,Potency,[6],"inconclusive: 8.98 µM [cytotoxic, full curve]"
same,Potency,[4],"inconclusive: 50.9 µM [cytotoxic, partial curve, poor fit]"
C=CC(C)(CCC=C(C)C)OC(=O)/C=C/c1ccccc1 (stereo not given),"activity change, negative = inhibition",[1],inconclusive: -12.2%
same,Potency,[2],"inconclusive: 61.1 µM [falling, partial curve]"
same,Potency,[6],inactive

# Source: PubChem BioAssay (Tox21)
